43 molecules from PMC4336329 (PLoS ONE, 2015) can be followed below.

Screen size: about 310,000 compounds; about 2,200 (0.71%) showed an effect of 50% or more. Effects have a minus sign here. The list shows a part of the results.

human ether-à-go-go-related gene (hERG) potassium channel, sequence (Q12809 whole entry, looked up): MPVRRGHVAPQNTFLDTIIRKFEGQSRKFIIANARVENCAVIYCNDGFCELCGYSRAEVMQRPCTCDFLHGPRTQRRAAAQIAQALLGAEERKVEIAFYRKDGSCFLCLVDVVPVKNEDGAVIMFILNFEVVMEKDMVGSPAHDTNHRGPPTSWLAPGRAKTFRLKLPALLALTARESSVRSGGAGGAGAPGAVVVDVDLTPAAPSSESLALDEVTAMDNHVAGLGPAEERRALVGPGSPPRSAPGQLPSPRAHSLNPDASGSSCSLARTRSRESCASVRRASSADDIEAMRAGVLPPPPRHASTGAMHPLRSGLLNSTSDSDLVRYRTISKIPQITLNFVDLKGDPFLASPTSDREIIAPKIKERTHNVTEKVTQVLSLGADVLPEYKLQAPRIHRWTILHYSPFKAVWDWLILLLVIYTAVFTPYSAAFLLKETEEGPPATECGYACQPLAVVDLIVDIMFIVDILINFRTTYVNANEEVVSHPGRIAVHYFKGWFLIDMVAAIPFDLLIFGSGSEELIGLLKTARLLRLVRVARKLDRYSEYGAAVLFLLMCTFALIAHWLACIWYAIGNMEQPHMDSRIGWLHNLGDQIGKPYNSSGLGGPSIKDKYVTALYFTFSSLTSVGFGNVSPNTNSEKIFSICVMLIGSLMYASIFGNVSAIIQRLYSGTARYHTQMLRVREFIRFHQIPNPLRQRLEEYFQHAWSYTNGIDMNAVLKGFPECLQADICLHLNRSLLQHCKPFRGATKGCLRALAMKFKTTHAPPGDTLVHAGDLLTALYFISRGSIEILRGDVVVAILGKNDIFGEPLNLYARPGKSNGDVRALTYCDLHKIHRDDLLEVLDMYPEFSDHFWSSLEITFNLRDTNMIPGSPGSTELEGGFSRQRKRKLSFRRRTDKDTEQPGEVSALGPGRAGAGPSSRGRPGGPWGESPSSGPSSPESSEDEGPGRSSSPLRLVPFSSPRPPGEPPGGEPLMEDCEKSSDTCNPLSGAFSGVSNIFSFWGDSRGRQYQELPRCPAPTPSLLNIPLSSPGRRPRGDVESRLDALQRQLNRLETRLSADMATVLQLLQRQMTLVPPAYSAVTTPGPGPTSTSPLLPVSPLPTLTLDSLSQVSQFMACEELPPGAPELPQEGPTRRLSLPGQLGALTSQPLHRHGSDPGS

This assay has as its target human ether-à-go-go-related gene (hERG) potassium channel (human, UniProt Q12809). Put plainly: primary screen, population patch clamp on CHO cells stably expressing hERG.
`CCOc1ccc(OCC)c(NC(=O)CCS(=O)(=O)c2ccc(Br)s2)c1`: the “hERG current change (%, negative = inhibition) at 1uM” value stood at 5.87%.

Take `CN(c1ccccc1C(=O)Nc1ccccc1C(=O)NCc1ccco1)S(C)(=O)=O`: the “hERG current change (%, negative = inhibition) at 1uM” value amounted to 5.47%.

With `CCc1cccc(OCC(=O)Nc2ccc(C)c(S(=O)(=O)N3CCCCCC3)c2)c1`, the “hERG current change (%, negative = inhibition) at 1uM” value stood at 2.35%.

For `CCOCCCN(C)C1CCN(C(=O)c2oc3ccccc3c2NC(=O)COc2ccc(F)cc2)CC1`, the “hERG current change (%, negative = inhibition) at 1uM” value is recorded as -85.9%.

Turning to `N#CCCn1ncn(-c2ccccc2)c1=S`, the “hERG current change (%, negative = inhibition) at 1uM” value was 8.18%.

Take `Cc1ccc(NS(=O)(=O)c2ccc3c(c2)NC(=O)CO3)c(C)c1`: the “hERG current change (%, negative = inhibition) at 1uM” value is 17.3%.

Turning to `Cc1ccc(CNCC(O)(c2ccc(F)cc2)c2ccc(F)cc2)cc1`, the “hERG current change (%, negative = inhibition) at 1uM” value is 8.55%.

In the case of `Cl.OC(c1ccccc1)(c1ccccc1)C1CCCN1` (stereo not shown), the “hERG current change (%, negative = inhibition) at 1uM” value is 0.759%.

Consider `CC(C)(C)c1csc(NC(=O)C2=COCCO2)n1`, for which the “hERG current change (%, negative = inhibition) at 1uM” value came to 11.3%.

Turning to `CC1=NN(C(C#N)c2ccc(F)cc2)C(c2ccccc2)C1` (stereo not shown), the “hERG current change (%, negative = inhibition) at 1uM” value is reported as 12%.

For `CC1(C)Cc2c(sc3[nH]c(=S)[nH]c(=O)c23)CO1`, the “hERG current change (%, negative = inhibition) at 1uM” value stood at 10.4%.

As to `Cc1ccc(-c2csc(NC(=O)c3ccc4c(=O)n5c(nc4c3)CCCCC5)n2)cc1`, the “hERG current change (%, negative = inhibition) at 1uM” value was 7.87%.

Turning to `COc1cc(NC(=O)c2ccccc2-c2ccccc2)cc(OC)c1OC`, the “hERG current change (%, negative = inhibition) at 1uM” value amounted to 4.63%.

On to `COc1cccc(/C=C2\SC(=S)N(CCC(=O)NCCc3ccc(O)cc3)C2=O)c1`, for which the “hERG current change (%, negative = inhibition) at 1uM” value is given as 3.91%.

Regarding `Cc1ccc(NS(=O)(=O)c2cccc3nsnc23)cc1[N+](=O)[O-]`, the “hERG current change (%, negative = inhibition) at 1uM” value is 13.9%.

As for `COc1ccc(NC(=O)CSc2nnc(Cc3ccccc3)c(=O)n2N)cc1`, the “hERG current change (%, negative = inhibition) at 1uM” value came to 1.91%.

Regarding `S=c1[nH]cc(-c2ccccc2)n1-c1cccc(Cl)c1`, the “hERG current change (%, negative = inhibition) at 1uM” value was found to be 6.39%.

As to `Cc1nnc(N/N=C/c2ccc(O)c([N+](=O)[O-])c2)[nH]c1=O`, the “hERG current change (%, negative = inhibition) at 1uM” value was 15.4%.

On to `CCOc1cccc(CNC2CN3CCC2CC3)c1.Cl` (stereo not shown), for which the “hERG current change (%, negative = inhibition) at 1uM” value is reported as 1.48%.

In the case of `COC(=O)c1nc(-c2ccccc2)n[nH]1`, the “hERG current change (%, negative = inhibition) at 1uM” value is -3.45%.

Turning to `Cc1noc(C)c1COC(=O)Cc1ccc(Br)cc1`, the “hERG current change (%, negative = inhibition) at 1uM” value was 11%.

As for `CCCC1=C(C(=O)OCC)C(c2ccc(OC)c(C)c2OC)C(C#N)=C(N)O1` (stereo not shown), the “hERG current change (%, negative = inhibition) at 1uM” value was -0.885%.

With `O=C(NCN1C(=O)C2C3C=CC(C3)C2C1=O)Nc1ccccn1` (stereo not shown), the “hERG current change (%, negative = inhibition) at 1uM” value came out at 11.6%.

As for `COc1ccc(Cl)cc1Nc1nc(C)cc(=O)[nH]1`, the “hERG current change (%, negative = inhibition) at 1uM” value came to 4.87%.

As to `Cc1ccc(C)c(N2N=C(C(=O)Nc3cccc(S(=O)(=O)N4CCCCC4)c3)CCC2=O)c1`, the “hERG current change (%, negative = inhibition) at 1uM” value is on record as -0.476%.

In the case of `CCN(CC)C(=O)CC(c1ccc(N(C)C)cc1)c1c(OC)cc(OC)c2c(-c3ccccc3)cc(=O)oc12` (stereo not shown), the “hERG current change (%, negative = inhibition) at 1uM” value is 9.2%.

In the case of `CCOc1ccc(-n2ccnc2SCC(=O)Nc2nnc(C)s2)cc1`, the “hERG current change (%, negative = inhibition) at 1uM” value is listed as 5.85%.

On to `CCOC(=O)C1CCN(CC(=O)Nc2c(C(=O)OC)[nH]c3cccc(C)c23)CC1`, for which the “hERG current change (%, negative = inhibition) at 1uM” value was determined as 12.4%.

In the case of `CCOC(=O)/C=C/C(=O)OCC(=O)Nc1ccc(C)cc1`, the “hERG current change (%, negative = inhibition) at 1uM” value is 4.82%.

For the molecule `COc1ccc(S(=O)(=O)N2CCOCC2)cc1NC(=O)CCc1c[nH]c2ccccc12`, the “hERG current change (%, negative = inhibition) at 1uM” value is -1.59%.

Consider `CCC(C)[C@H](NC(=O)c1cc2cc(Cl)ccc2n1C)C(=O)N1CCC[C@H]1C(=O)O` (stereo partly shown), for which the “hERG current change (%, negative = inhibition) at 1uM” value is 12.8%.

As to `CCNC(=O)C(=O)NCCC1CCCCN1S(=O)(=O)c1cccs1` (stereo not shown), the “hERG current change (%, negative = inhibition) at 1uM” value amounted to 10%.

In the case of `Cc1cc(C)c2oc(C(=O)Nc3ccc(S(=O)(=O)N4CCCC(C)C4)cc3)cc(=O)c2c1` (stereo not shown), the “hERG current change (%, negative = inhibition) at 1uM” value is reported as 5.41%.

Consider `COc1cccc2c1OCC/C2=N\NC(=O)COc1ccc(C)cc1`, for which the “hERG current change (%, negative = inhibition) at 1uM” value is 13.9%.

Regarding `COc1cccc(C(=O)N(Cc2cc3cc(C)ccc3[nH]c2=O)C(C)C)c1`, the “hERG current change (%, negative = inhibition) at 1uM” value is 3.79%.

`O=C(c1ccco1)N1CCN(C(=O)c2[nH]ncc2[N+](=O)[O-])CC1`: the “hERG current change (%, negative = inhibition) at 1uM” value is reported as 5.34%.

On to `Cc1cc(NC(=O)COC(=O)Cn2c(C)csc2=O)ccc1Br`, for which the “hERG current change (%, negative = inhibition) at 1uM” value was determined as 5.55%.

With `Cc1cccc(C(=O)NCCCNC(=O)c2ccco2)c1`, the “hERG current change (%, negative = inhibition) at 1uM” value is 2.96%.

`N#CC(C(=O)Nc1ccccc1)=C1Nc2ccccc2N1`: the “hERG current change (%, negative = inhibition) at 1uM” value is 15.1%.

As to `Cc1ccccc1Nc1c(C)c(C)nc2ncnn12`, the “hERG current change (%, negative = inhibition) at 1uM” value was 14.7%.

With `Cc1cc(C)c(S(=O)(=O)N2CCCC(C(=O)NCCC3=CCCCC3)C2)c(C)c1` (stereo not shown), the “hERG current change (%, negative = inhibition) at 1uM” value came to 6.54%.

Consider `COCCn1c(SC(C)C(=O)NCC2CCCO2)nc2scc(-c3ccc(F)cc3)c2c1=O` (stereo not shown), for which the “hERG current change (%, negative = inhibition) at 1uM” value is -22.4%.

As to `COc1cccc(/C=C/C(=O)c2cccc([N+](=O)[O-])c2)c1`, the “hERG current change (%, negative = inhibition) at 1uM” value is listed as 2.92%.
